Here are results for 22 molecules from PMC12136788.

Sequences and labels used below:
T1: UNK ZnF1-3 (human, UniProt Q9C0B0 31-174)
T1 sequence: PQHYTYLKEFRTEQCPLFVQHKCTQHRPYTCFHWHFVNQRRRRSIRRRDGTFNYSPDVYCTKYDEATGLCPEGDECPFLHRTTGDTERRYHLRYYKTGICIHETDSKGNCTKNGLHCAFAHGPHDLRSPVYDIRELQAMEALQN

B1: chr7:75932113:75932114:+_ENSG00000106211_ENST00000248553|hu_hu|hu_hu_hu_mus_False|38_38 (ssRNA)
RNA: GGGAGUUCUACAGUCCGACGAUCCUGCGACCACUCAUCGGGCAACCGGGGCACCCCGAAAGCUUGAUCGAAGAGGCGGCUGUGUGCAGGGUACCAGCGGAAGGGGUGUUCCCAGCUCGGGCUCCGCAGCAGCGAGAAGGGCACCAACAGAGGAUUGAGCAUCA
B2: 38107971_38108091_3725_3pUTR_ENSMUSG00000026083_ENSMUST00000027252|mouse|control|control (ssRNA)
RNA: GGGAGUUCUACAGUCCGACGAUCCAAACAUUUUGGGAGAUUCCCCAGGGAUAGGUUCUAUUUUGACACAGACCUCUUGUCCUUUUUUUGCAACAUCCACCUGCUUGUGGUUUAUUUCAAUGCUUGUUACUAUCCCAAUGUCAACAACAGAGGAUUGAGCAUCA
B3: 75988097_75988217_191_5pUTR_ENSG00000170027_ENST00000307630|human|control|control (ssRNA)
RNA: GGGAGUUCUACAGUCCGACGAUCUCUGCACCAGUUGCUCGCGGUCCACCAUCUUCGCGGGGCUGGGUCUGGCCGGAGAAGGAGGAGGACACUGGGGCGGCCUGAAGGGCUUGGAGGGCGCGACUGGAGCCCAAGUGCCGGAGACAACAGAGGAUUGAGCAUCA
B4: 130672718_130673873_774_CDS_ENSG00000017260_ENST00000359644|human|control|control (ssRNA)
RNA: GGGAGUUCUACAGUCCGACGAUCUGUUCCAAUGACAACACCCUUUGCUUUGCCACAUCUGACCAGUGUUCCCAUAAAGGCAAUGUUACUUCUCGAUGCAAGAUCUCCAUUAGUUGCAGCUGGCUGAGGAGCUGUCACCUUAGACAACAGAGGAUUGAGCAUCA
B5: chr19:36966019:36966020:+_ENSMUSG00000024811_ENSMUST00000025729|mus_hu|FALSE|FALSE (ssRNA)
RNA: GGGAGUUCUACAGUCCGACGAUCCAUGAAAGCUAGAAAUUGAGGCCAGUAAAGAAGCUUCUUUAGUAAUCAGGACCUAUCAUAGUUAGAGCUCUUUGGAAUGUGUCUCAUACAUACAAAGGUAUCACAAAUUAAAUCUUCAGCCAACAGAGGAUUGAGCAUCA
B6: 159564474_159570165_898_3pUTR_ENSMUSG00000028173_ENSMUST00000068952|mouse|control|control (ssRNA)
RNA: GGGAGUUCUACAGUCCGACGAUCCCACACCAUAAUGAUGAAGAUGCUGGGUGUAAGGAAGGUCUUCAUAGCAAACCAUACCUUAGUGAAACCUCCGUUUUGGUGGAUUCCCACCAACCGAAUGUCCUUUAUCUCCCCAAUUCCCAACAGAGGAUUGAGCAUCA
B7: chr5:156566098:156566099:-_ENSG00000155868_ENST00000420343|hu_mus|motif|central (ssRNA)
RNA: GGGAGUUCUACAGUCCGACGAUCGGGUCGAUAUUCAUUUAUAAGAUGAUGUACAUGUACAAAAAGUAGCUUAAGAUCUUCGGGCUUUUCUUCUCGUUUUAUACUCCCAGGACUUCUUAUUAAGAUGUCUAAAAGGUCUAAGAACAACAGAGGAUUGAGCAUCA
B8: chr2:32526493:32526494:+_ENSG00000119820_ENST00000437765|hu_mus|motif|central (ssRNA)
RNA: GGGAGUUCUACAGUCCGACGAUCAGAUCCAACCACCAAAAGUAUAGGGGCUAUUACAAUGAGAGGAAGUAAUGAAUAUCCGGUAACUCCAAGAACUUGGCCAUAUGCAACUUCUCCACCAAGAACUCUAGCCAGUAAGAAAAUCAACAGAGGAUUGAGCAUCA
B9: chr13:55314840:55314841:+_ENSMUSG00000021488_ENSMUST00000099490|mus_hu|FALSE|FALSE (ssRNA)
RNA: GGGAGUUCUACAGUCCGACGAUCAUCACUUUUUUCAGGGUCUUGAAAGGAUUCUGAUCCAUCAGCAGACCCAUUUAAAUACUCUACAUUGAUCAUGGAGGCCAAAUCCUGUAGUCUCCGCAGUGGAAUGUAACAAGAUGGAGACAACAGAGGAUUGAGCAUCA
B10: chr12:88041583:88041584:-_ENSMUSG00000021257_ENSMUST00000021682|mus_mus|motif|central (ssRNA)
RNA: GGGAGUUCUACAGUCCGACGAUCUUCUGCCGGCUCCAGGGUGCAGUUUAAGUGCCAUUUAAACCCCCACACUUCAUUUCGGAAACAGAAACAAGGAGAAACAAGGAAAAGAUAAACCACCAAGCUCUGACCCUCUGCCUCCUUCAACAGAGGAUUGAGCAUCA
B11: chr1:171751117:171751118:+_ENSG00000010165_ENST00000361735|hu_hu|motif|central (ssRNA)
RNA: GGGAGUUCUACAGUCCGACGAUCCUUUUAGGUAAGAGGUUCAUGUUCCUACUGCCGAAGCUGCGUUUUCAAGACUCCCCGGUUCCCUGUGAGAUACCAUUUGAGGAGCUUGCCCACCACACGCAGGCUCCGGGACACUGCAGUCAACAGAGGAUUGAGCAUCA
B12: chr5:132270174:132270175:-_ENSG00000072364_ENST00000265343|hu_hu|motif|central (ssRNA)
RNA: GGGAGUUCUACAGUCCGACGAUCAGAAUCCCAGUUUGCAUCAGGGUCCCGAGGUGAUUUGGAGCGUUGAUGUUCCUUGCGGUGGUGAUCAUUCCCAUGAGACCUGGAAUGACUAGAGUUUAAUGAAGAAACAGCCUGGGGUUUCAACAGAGGAUUGAGCAUCA
B13: chrX:130830059:130830060:+_ENSMUSG00000033578_ENSMUST00000037687|mus_mus|motif|central (ssRNA)
RNA: GGGAGUUCUACAGUCCGACGAUCGGGCCAUGAUAGUUAUGGUUCGUGGGGAUGCCAUGGGGUCACCAAGGCAGGUCCCAACGGAUCCCUCUGCUUUGCGCAGCCCGGCUGUCAAGGCGCAGGCAGUUAGCACAGGGAGAGCUACAACAGAGGAUUGAGCAUCA
B14: chr20:54972846:54972847:+_ENSG00000101138_ENST00000217109|hu_hu|FALSE|FALSE (ssRNA)
RNA: GGGAGUUCUACAGUCCGACGAUCAGCUUCCUGAAUGUAUUUGAAGGCUCUUUUUGCUGAUGGUUUGGAAUAAUCAAAUAAUUUAAGAGUAUAAUCCCUUGAACCAGAAGCCAGGAUCUGUUCUGUUGGGUGGAAAGCAAGGCACAACAGAGGAUUGAGCAUCA
B15: 228337185_228356263_158_CDS_ENSG00000173744_ENST00000409171|human|control|control (ssRNA)
RNA: GGGAGUUCUACAGUCCGACGAUCCAGGCUGCCGGAGCAGGAGGUACACACGAAGGAGCCGACCGUCAUGUUAACGUAGGUGGGGCCGCGCUGGUCGCAGUCGAAGCACUUUCGGUUGUGCGGGAGGCCGGUCAUGUCCCGCAGCAACAGAGGAUUGAGCAUCA
B16: chr4:108954403:108954404:+_ENSG00000138796_ENST00000309522|hu_mus|FALSE|FALSE (ssRNA)
RNA: GGGAGUUCUACAGUCCGACGAUCAGUAUCCAGUCCAACAUAGUCAAGAAGCUCAAACGGACCCAUGGGAUACCCAGCUCCCAGCUUCAUCGCUGUAUCGAUGUCUUCCUUAGACGCAUCGCCUCGCUCGUGUAGCCUGACGGCCAACAGAGGAUUGAGCAUCA
B17: chr17:65740002:65740003:+_ENSG00000130935_ENST00000581375|hu_hu|FALSE|FALSE (ssRNA)
RNA: GGGAGUUCUACAGUCCGACGAUCACACCGUUCUUGCCUGGAUGAAGCAAGAGUUCACAUAAAAGAGCUUUAUAAAAUGUCUAUGAAGGAGAAUUGAUAAUAUCAGAAGAGCUCCAGCACUUCAAUUGAAUAUAAUCCUCUAUUCAACAGAGGAUUGAGCAUCA
B18: chr11:85347198:85347199:+_ENSG00000171204_ENST00000358867|hu_mus|motif|central (ssRNA)
RNA: GGGAGUUCUACAGUCCGACGAUCCCUUGCACGUGGUUUUUCACAUAUAUUGUAAUGAUGUAAGCCAGUAAAAGCUCCCAUUACGGUCUGAAAGAACAGAGGAAUAGCCAUUGCUUUCAUCCCAGUUUGACAAAGGAGCAACCACAACAGAGGAUUGAGCAUCA
B19: 60013606_60014000_3223_CDS_ENSMUSG00000020538_ENSMUST00000020846|mouse|control|control (ssRNA)
RNA: GGGAGUUCUACAGUCCGACGAUCGGUGUGCUCCCGCCAUGUGGGCCGUGGCUCCAGCUCAGCUGUAGUGCCUCCUUUGCCACUGGAACCUGCCCUCCUCCUCAGACUGCGAUCCAGGAGCUGGUGUGUCCGGGCAGGACUUGCCAACAGAGGAUUGAGCAUCA
B20: chr2:69032557:69032558:-_ENSMUSG00000005233_ENSMUST00000005365|mus_mus|motif|central (ssRNA)
RNA: GGGAGUUCUACAGUCCGACGAUCAUUGGCAAGAAAAGCUGAAAAAUUGUUGGUCUUCCUGACUUUCUCCUGAAAUUCUGCGGGGCACUCAAGAUGAGGCGAACUGUCGUACACUUCAUAUUCCUUAGCUUCAUUUAUGCUCAUCAACAGAGGAUUGAGCAUCA
B21: chr5:128440902:128440903:+_ENSG00000066583_ENST00000173527|hu_mus|hu_hu_hu_mus_True|48_78 (ssRNA)
RNA: GGGAGUUCUACAGUCCGACGAUCUUGAACGGUGCUGCCAAGUCCUUUGGGGUAUUGUUCUGUUACAAUAACUGGAAUCCCUAAGAUCCGGGCCCCUUGCAACAGUCUCUGUCCCACACUAAUGAUGUCCCCAAAGUAUUUGAUCAACAGAGGAUUGAGCAUCA
B22: chr2:9570881:9570882:+_ENSG00000119203_ENST00000238112|hu_mus|hu_hu_hu_mus_False|18_28 (ssRNA)
RNA: GGGAGUUCUACAGUCCGACGAUCACUUGUCUUCUGAAGGAACCAGGGCAGGGCUCCACAGUGAUCCAAAUGGAAAUGACUGAUCAACAGAAGGUCGAUCUCAGCUGGGUCAAUUAAAUCAAUAUAAGGAAGGGCAUCCAUUCCCAACAGAGGAUUGAGCAUCA

The other results are listed elsewhere or left out.

The assay concerns the target T1, UNK ZnF1-3. The assay can be described thus: nsRBNS (natural sequence RNA bind-n-seq); RBNS binding buffer (assumed for nsRBNS): 25 mM Tris pH 7.5, 150 mM KCl, 3 mM MgCl2, 0.01% Triton X-100, 500 ug/ml BSA, 20 U/ml SUPERase-In, 4 C; UNK is unkempt and MSI1 is Musashi-1; names of the RNAs are library labels; protein concentration not given here; high values mean tight binding.
The molecule B1 registered a binding signal of 1.8 enrichment R.

Take B2: the binding signal was 0.544 enrichment R.

As to B3, the binding signal was 1.24 enrichment R.

In the case of B4, the binding signal came to 0.581 enrichment R.

For the molecule B5, the binding signal was 1.41 enrichment R.

B6 displayed a binding signal of 0.993 enrichment R.

With B7, the binding signal was 0.623 enrichment R.

The molecule B8 registered a binding signal of 1.9 enrichment R.

The molecule B9 registered a binding signal of 0.653 enrichment R.

Molecule B10 came in with a binding signal of 1.74 enrichment R.

As to B11, the binding signal came to 0.55 enrichment R.

As for B12, the binding signal turned out to be 1.05 enrichment R.

B13 registered a binding signal of 0.818 enrichment R.

On to B14, for which the binding signal is 1.91 enrichment R.

B15 registered a binding signal of 0.986 enrichment R.

B16: the binding signal was 1.01 enrichment R.

Molecule B17 gave a binding signal of 1.01 enrichment R.

B18 registered a binding signal of 1.93 enrichment R.

Regarding B19, the binding signal worked out at 0.666 enrichment R.

B20 had a binding signal of 0.93 enrichment R.

Consider B21, for which the binding signal was 0.633 enrichment R.

On to B22, for which the binding signal amounted to 1.5 enrichment R.
